Consider 24 molecules from the supplement of paper PMC4604168 (melanoma cell lines).

This is one part of the list. Most values come without repeats; read them as rough.
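Also: cells treated in 1,536-well plates, then fixed and DAPI-stained, with nuclei counted from automated high-throughput microscope images.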

One assay has as its system 501Mel. Put plainly: cell count relative to DMSO control; melanoma cells; higher = more viable cells. The conditions noted are these: library dose: standard library concentration; 72 h.
In turn, `O=C1NC(=O)/C(=C/c2ccc(-c3ccc(F)cc3O)o2)S1` + O=C(Oc1ccc([N+](=O)[O-])cc1)N1CCC(C(O)(c2ccc3c(c2)OCO3)c2ccc3c(c2)OCO3)CC1 [JZL184] (first compound 5 µM, partner dose 5 µM) registered a cell count of 80.1%.

Consider `CC(C)C[C@H](NC(=O)[C@H](Cc1ccccc1)NC(=O)c1cnccn1)B(O)O` [Bortezomib] + O=C(Oc1ccc([N+](=O)[O-])cc1)N1CCC(C(O)(c2ccc3c(c2)OCO3)c2ccc3c(c2)OCO3)CC1 [JZL184] (first compound 0.005 µM, partner dose 5 µM), for which the cell count is 7.75%.

In turn, `Oc1nc(-c2ccc(C(F)(F)F)cc2)nc2c1CSCC2` + O=C(Oc1ccc([N+](=O)[O-])cc1)N1CCC(C(O)(c2ccc3c(c2)OCO3)c2ccc3c(c2)OCO3)CC1 [JZL184] (first compound 10 µM, partner dose 5 µM) registered a cell count of 65.7%.

Regarding `O=C(O)C(=O)Nc1sc2c(c1C(=O)O)CCNC2` + O=C(Oc1ccc([N+](=O)[O-])cc1)N1CCC(C(O)(c2ccc3c(c2)OCO3)c2ccc3c(c2)OCO3)CC1 [JZL184] (first compound 8.33333 µM, partner dose 5 µM), the cell count worked out at 95.9%.

In the case of `Cn1c(Nc2ccc(C(F)(F)F)cc2)nc2cc(Oc3ccnc(-c4ncc(C(F)(F)F)[nH]4)c3)ccc21` + C/C(O)=C(\C#N)C(=O)Nc1cc(Br)ccc1Br [LFM-A13] (first compound 0.4 µM, partner dose 10 µM), the cell count amounted to 45.9%.

Consider `COc1ccc(COc2ccc(Cc3cnc(N)nc3N)cc2OC)cc1` + C/C(O)=C(\C#N)C(=O)Nc1cc(Br)ccc1Br [LFM-A13] (first compound 5 µM, partner dose 10 µM), for which the cell count is 122%.

Molecule `Cn1c(Nc2ccc(C(F)(F)F)cc2)nc2cc(Oc3ccnc(-c4ncc(C(F)(F)F)[nH]4)c3)ccc21` + O=C(Oc1ccc([N+](=O)[O-])cc1)N1CCC(C(O)(c2ccc3c(c2)OCO3)c2ccc3c(c2)OCO3)CC1 [JZL184] (first compound 0.4 µM, partner dose 5 µM) came in with a cell count of 33.1%.

`Clc1ccc(Nc2nnc(Cc3ccncc3)c3ccccc23)cc1` [vatalanib] + C/C(O)=C(\C#N)C(=O)Nc1cc(Br)ccc1Br [LFM-A13] (first compound 10 µM, partner dose 10 µM): the cell count stood at 69.5%.

The test system of a further assay is A101D. Described as above. The conditions noted are these: library dose: standard library concentration; 72 h.
As to `O=C1NC(=O)/C(=C/c2ccc(-c3ccc(F)cc3O)o2)S1` + O=C(Oc1ccc([N+](=O)[O-])cc1)N1CCC(C(O)(c2ccc3c(c2)OCO3)c2ccc3c(c2)OCO3)CC1 [JZL184] (first compound 5 µM, partner dose 5 µM), the cell count was determined as 102%.

Consider `CC(C)C[C@H](NC(=O)[C@H](Cc1ccccc1)NC(=O)c1cnccn1)B(O)O` [Bortezomib] + N.N.[Cl][Pt][Cl] [cisplatin] (first compound 0.005 µM, partner dose 8 µM), for which the cell count was 8.53%.

`C#Cc1cccc(Nc2ncnc3cc(OCCOC)c(OCCOC)cc23)c1` [erlotinib] + C[As](C)SC[C@H](NC(=O)CC[C@H](N)C(=O)O)C(=O)NCC(=O)O [Darinaparsin] (first compound 4 µM, partner dose 2 µM): the cell count stood at 60.2%.

The molecule `CC(C)C[C@H](NC(=O)[C@H](Cc1ccccc1)NC(=O)c1cnccn1)B(O)O` [Bortezomib] + O=C(Oc1ccc([N+](=O)[O-])cc1)N1CCC(C(O)(c2ccc3c(c2)OCO3)c2ccc3c(c2)OCO3)CC1 [JZL184] (first compound 0.005 µM, partner dose 5 µM) displayed a cell count of 7.63%.

In turn, `Cc1nc(Nc2ncc(C(=O)Nc3c(C)cccc3Cl)s2)cc(N2CCN(CCO)CC2)n1` [dasatanib] + O=C(Oc1ccc([N+](=O)[O-])cc1)N1CCC(C(O)(c2ccc3c(c2)OCO3)c2ccc3c(c2)OCO3)CC1 [JZL184] (first compound 0.02 µM, partner dose 5 µM) returned a cell count of 59.1%.

Take `Cc1cc(Nc2cc(N3CCN(C)CC3)nc(Sc3ccc(NC(=O)C4CC4)cc3)n2)n[nH]1` [Tozasertib] + Cn1cc(C2=C(c3cn(C4CCN(Cc5ccccn5)CC4)c4ccccc34)C(=O)NC2=O)c2ccccc21 [Enzastaurin] (first compound 0.03 µM, partner dose 4 µM): the cell count amounted to 85.4%.

`Oc1nc(-c2ccc(C(F)(F)F)cc2)nc2c1CSCC2` + O=C(Oc1ccc([N+](=O)[O-])cc1)N1CCC(C(O)(c2ccc3c(c2)OCO3)c2ccc3c(c2)OCO3)CC1 [JZL184] (first compound 10 µM, partner dose 5 µM) returned a cell count of 81.7%.

For `CO[C@H]1C[C@@H]2CC[C@@H](C)[C@@](O)(O2)C(=O)C(=O)N2CCCC[C@H]2C(=O)O[C@H]([C@H](C)C[C@@H]2CC[C@@H](OCCO)[C@H](OC)C2)CC(=O)[C@H](C)/C=C(\C)[C@@H](O)[C@@H](OC)C(=O)[C@H](C)C[C@H](C)/C=C/C=C/C=C/1C` [everolimus] + O=C(Oc1ccc([N+](=O)[O-])cc1)N1CCC(C(O)(c2ccc3c(c2)OCO3)c2ccc3c(c2)OCO3)CC1 [JZL184] (first compound 0.1 µM, partner dose 5 µM), the cell count is 79.5%.

For the molecule `O=C(O)C(=O)Nc1sc2c(c1C(=O)O)CCNC2` + O=C(Oc1ccc([N+](=O)[O-])cc1)N1CCC(C(O)(c2ccc3c(c2)OCO3)c2ccc3c(c2)OCO3)CC1 [JZL184] (first compound 8.33333 µM, partner dose 5 µM), the cell count came to 82.6%.

Turning to `Cn1c(Nc2ccc(C(F)(F)F)cc2)nc2cc(Oc3ccnc(-c4ncc(C(F)(F)F)[nH]4)c3)ccc21` + C/C(O)=C(\C#N)C(=O)Nc1cc(Br)ccc1Br [LFM-A13] (first compound 0.4 µM, partner dose 10 µM), the cell count was determined as 63.6%.

For `C#Cc1cccc(Nc2ncnc3cc(OCCOC)c(OCCOC)cc23)c1` [erlotinib] + Cc1cc(SCc2sc(-c3ccc(C(F)(F)F)c(F)c3)nc2C)ccc1OCC(=O)O [GW0742] (first compound 4 µM, partner dose 10 µM), the cell count came out at 72.5%.

Turning to `O=C(CCCCCCC(=O)Nc1ccccc1)NO` [vorinostat] + O=C(Oc1ccc([N+](=O)[O-])cc1)N1CCC(C(O)(c2ccc3c(c2)OCO3)c2ccc3c(c2)OCO3)CC1 [JZL184] (first compound 0.4 µM, partner dose 5 µM), the cell count is 85.3%.

Take `O=C(O)c1ccc2c(c1)nc(Nc1cccc(Cl)c1)c1ccncc12` + C[As](C)SC[C@H](NC(=O)CC[C@H](N)C(=O)O)C(=O)NCC(=O)O [Darinaparsin] (first compound 2 µM, partner dose 2 µM): the cell count turned out to be 63.5%.

`Cc1cc(Nc2cc(N3CCN(C)CC3)nc(Sc3ccc(NC(=O)C4CC4)cc3)n2)n[nH]1` [Tozasertib] + N.N.[Cl][Pt][Cl] [cisplatin] (first compound 0.03 µM, partner dose 8 µM) had a cell count of 86%.

On to `Cc1cc(Nc2cc(N3CCN(C)CC3)nc(Sc3ccc(NC(=O)C4CC4)cc3)n2)n[nH]1` [Tozasertib] + C[As](C)SC[C@H](NC(=O)CC[C@H](N)C(=O)O)C(=O)NCC(=O)O [Darinaparsin] (first compound 0.03 µM, partner dose 2 µM), for which the cell count amounted to 96.5%.

Take `COc1ccc(COc2ccc(Cc3cnc(N)nc3N)cc2OC)cc1` + C/C(O)=C(\C#N)C(=O)Nc1cc(Br)ccc1Br [LFM-A13] (first compound 5 µM, partner dose 10 µM): the cell count was determined as 95%.

The molecule `Clc1ccc(Nc2nnc(Cc3ccncc3)c3ccccc23)cc1` [vatalanib] + C[As](C)SC[C@H](NC(=O)CC[C@H](N)C(=O)O)C(=O)NCC(=O)O [Darinaparsin] (first compound 10 µM, partner dose 2 µM) returned a cell count of 78.8%.

As to `CN1CCN(c2ccc3nc(-c4c(N)c5c(F)cccc5[nH]c4=O)[nH]c3c2)CC1` [Dovitinib] + C[As](C)SC[C@H](NC(=O)CC[C@H](N)C(=O)O)C(=O)NCC(=O)O [Darinaparsin] (first compound 0.5 µM, partner dose 2 µM), the cell count was 58.8%.

Regarding `Clc1ccc(Nc2nnc(Cc3ccncc3)c3ccccc23)cc1` [vatalanib] + Cc1cc(SCc2sc(-c3ccc(C(F)(F)F)c(F)c3)nc2C)ccc1OCC(=O)O [GW0742] (first compound 10 µM, partner dose 10 µM), the cell count worked out at 78.7%.

In turn, `O=C(O)c1ccc2c(c1)nc(Nc1cccc(Cl)c1)c1ccncc12` + C/C(O)=C(\C#N)C(=O)Nc1cc(Br)ccc1Br [LFM-A13] (first compound 2 µM, partner dose 10 µM) displayed a cell count of 74.5%.

Regarding `Nc1ccn([C@@H]2O[C@H](CO)[C@@H](O)C2(F)F)c(=O)n1` [gemcitabine] + Cc1cc(SCc2sc(-c3ccc(C(F)(F)F)c(F)c3)nc2C)ccc1OCC(=O)O [GW0742] (first compound 0.002 µM, partner dose 10 µM), the cell count was found to be 93.7%.

As to `Cn1c(Nc2ccc(C(F)(F)F)cc2)nc2cc(Oc3ccnc(-c4ncc(C(F)(F)F)[nH]4)c3)ccc21` + O=C(Oc1ccc([N+](=O)[O-])cc1)N1CCC(C(O)(c2ccc3c(c2)OCO3)c2ccc3c(c2)OCO3)CC1 [JZL184] (first compound 0.4 µM, partner dose 5 µM), the cell count amounted to 68.9%.

Turning to `CC(C)C[C@H](NC(=O)[C@H](Cc1ccccc1)NC(=O)c1cnccn1)B(O)O` [Bortezomib] + C[As](C)SC[C@H](NC(=O)CC[C@H](N)C(=O)O)C(=O)NCC(=O)O [Darinaparsin] (first compound 0.005 µM, partner dose 2 µM), the cell count was 12%.
